# Screen size: about 390,000 compounds; about 930 (0.24%) were called active. Inconclusive results, whose numbers are uncertain, are shown with a selection of clear calls. Calls come from the whole dose curve; as a rule, active = well fitted activation curve with a large enough effect; inconclusive = small, poorly fitted or top-dose-only effect; inactive = no such curve, though single readings can be large or run the other way. Potencies of inconclusive entries are doubtful fits and often do not repeat.
# Assay: qHTS for Suppressors of FUS Proteinopathy: Primary screen using FUS-linked yeast assay; note: nearly all actives have a fitted effect of over 55% in size;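 for growth rescue (activation): plate controls were DMSO vehicle for no effect and reference control for full effect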
# Conditions: S. cerevisiae FUS-expressing, OD600, 24 h; Potency: growth rescue; growth rescue (activation): at 76.6 µM (top of the series)
# In short: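 Yeast FUS proteinopathy model; galactose-induced FUS (2%), starting OD 0.005. Cpds in dilution series, 24hr, 30C, 99% humidity. Abs 600 nm growth. Pos ctrl CP55940 (top 92uM final); neg ctrl DMSO.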
# Potency is the fitted concentration of half-maximal effect; tags give direction and shape of the fitted curve.
Structure (SMILES),Potency,growth rescue (activation)
CCOc1cccc2sc(N(CCCN(C)C)C(=O)c3ccc(S(=O)(=O)N4CCc5ccccc5C4)cc3)nc12,"inconclusive: 15.8 µM [activator, single point]",
CC(=O)CC(=O)Nc1cccc2c1CCCC2,,inconclusive: 74.9% [activator]
CS(=O)(=O)c1ncc(N(Cc2ccccc2)Cc2ccco2)c(C(=O)Nc2cccc(C(F)(F)F)c2)n1,"inconclusive: 35.5 µM [activator, partial curve, poor fit]",
O=C(O)Cc1sc(-c2ccccc2)nc1-c1ccccc1,,inconclusive: 63.6% [activator]
COC(=O)[C@]12C[C@H](CC(=O)N3CCOCC3)C(=O)N(Cc3cccc4ccccc34)C1=C[C@H](C1CCCC1)O[C@@H]2C,"inconclusive: 31.6 µM [activator, single point]",
O=C(c1ccccc1)N1CCc2cc(CNS(=O)(=O)c3ccccc3Cl)ccc21,,inactive: 2.71%
Cc1cccc(N(CC(=O)NC(C)c2ccccc2)S(=O)(=O)c2ccccc2)c1C (stereo not drawn),"inconclusive: 35.5 µM [activator, single point]",
CCN(C(=O)COC(=O)CCCc1c[nH]c2ccccc12)c1c(N)n(Cc2ccccc2)c(=O)[nH]c1=O,"inconclusive: 28.2 µM [activator, single point]",
CC(C)(C)C(=O)[C@H]1[C@H](c2ccccc2)[C@@]2(N=C(c3ccccc3)OC2=O)C2c3ccccc3C=NN21 (stereo partly drawn),"inconclusive: 44.7 µM [activator, single point]",
Cc1nc(N2C(=O)C(=O)/C(=C(/O)c3ccccc3)C2c2ccco2)sc1C (stereo not drawn),"inconclusive: 14.1 µM [activator, partial curve, poor fit]",
N#CC(=C1C=C(Br)C(=NO)C=C1Cl)c1ccc(Cl)cc1,,inactive: 4.41%
CCC(=O)N1CCc2cc(S(=O)(=O)CCC(=O)N3CCN(c4cccc(C)c4)C(C)C3)ccc21 (stereo not drawn),"inconclusive: 28.2 µM [activator, single point]",
CCN(Cc1ccc(OC)cc1)c1ccc(-c2nc(-c3ccncc3)no2)cc1[N+](=O)[O-],"inconclusive: 31.6 µM [activator, single point]",
COC(=O)C(C)N1C(=O)S/C(=C/c2cc(C)n(-c3ccccn3)c2C)C1=O (stereo not drawn),"inconclusive: 35.5 µM [activator, single point]",
Cc1ccc(C(=O)Nc2ccc(N3CCCC3)cc2)c(C)c1,"inconclusive: 3.55 µM [activator, partial curve, poor fit]",
CC(Oc1ccccc1)C(=O)N1CCC2(CC1)Oc1ccc(F)cc1C(=O)C21CC(c2ccc(Cl)cc2)=NO1 (stereo not drawn),"inconclusive: 50.1 µM [activator, single point]",
Cc1ccc(OC[C@@H](O)CN2CCC(C(O)(c3ccccc3)c3ccccc3)CC2)cc1,,inactive: 7.67%
C[C@H](CO)N1C[C@H](C)[C@@H](CN(C)C(=O)Nc2ccc3c(c2)OCO3)Oc2c(NC(=O)Nc3ccc4c(c3)OCO4)cccc2C1=O,"inconclusive: 22.4 µM [activator, partial curve, poor fit]",
O=C1CC(c2ccccc2)Cc2[nH]c(=O)c(-c3nc(-c4cccc(Cl)c4)cs3)cc21 (stereo not drawn),,inactive: 3.07%
COc1cc(C(=O)NCCOc2cc(C)ccc2C(C)C)cc(OC)c1OC,,inactive: 31.6%
C[C@@]12C(=O)Nc3ccc(F)cc3C(=O)N1[C@H]1c3cc(Cl)ccc3OC[C@@H]1[C@@H]2c1ccccc1,,inactive: 7.59%

Structure (SMILES),Potency,growth rescue (activation)
Cc1cc(C(=O)COC(=O)c2cccnc2Cl)c(C)n1CC1CCCO1 (stereo not drawn),,inactive: 6.51%
CCOc1ccc(CCNC(=O)CSc2cc(=O)n(C)c3ccccc23)cc1OCC,"inconclusive: 50.1 µM [activator, single point]",
CCOC(=O)C1=C(COC(=O)CCOc2ccc(OC)cc2)NC(=O)NC1C (stereo not drawn),,inactive: 5.99%
NC(=O)CC(NC(=O)Cc1ccc(Br)cc1)c1ccc(NCCc2ccc(F)cc2)c([N+](=O)[O-])c1 (stereo not drawn),"inconclusive: 35.5 µM [activator, single point]",
Cc1oc(-c2ccccc2)nc1C(=O)OCC(=O)NCc1ccc(Cl)cc1,,inactive: -13.4%
Cc1cc(C)c(S(=O)(=O)N2CCCCC2)c(C)c1N(C)S(=O)(=O)c1ccccc1,"inconclusive: 14.1 µM [activator, partial curve, poor fit]",
COc1ccccc1N1CCN(C(=O)C(CC(C)C)NC(=O)C2CCCCC2)CC1 (stereo not drawn),"inconclusive: 44.7 µM [activator, partial curve, poor fit]",
Cc1nn(CCC(=O)NNC(=O)NCc2ccccc2)c(C)c1[N+](=O)[O-],,inactive: 4.39%
CCc1ccccc1OCC(=O)Nc1ccc(N2CCCC2)cc1C,"inconclusive: 39.8 µM [activator, partial curve, poor fit]",
COC(=O)c1ccccc1NC1=C/C(=N\S(=O)(=O)c2ccc(C(=O)O)cc2)c2ccccc2C1=O,"inconclusive: 2.51 µM [activator, full curve]",
CCN(C[C@H]1N[C@@](Cc2ccccc2)(C(=O)OC)[C@H]2C(=O)N(C)C(=O)[C@@H]12)S(=O)(=O)c1ccc(OC(F)(F)F)cc1,"inconclusive: 31.6 µM [activator, single point]",
COc1ccc(CCC(=O)NC2CC(=O)N(c3ccc(C)c(C)c3)C2)cc1 (stereo not drawn),,inactive: 3.06%
CCC(C)c1ccccc1N1CC(C(=O)N2CCN(S(=O)(=O)c3ccccc3Br)CC2)CC1=O (stereo not drawn),"inconclusive: 31.6 µM [activator, partial curve, poor fit]",
CC(=O)OCCC(CC(C)C)NC(=O)[C@H](CC(C)C)NC(=O)OCc1ccccc1 (stereo partly drawn),,inactive: 19.8%
CCN1C(=O)[C@H]2[C@@H](c3ccc(-c4ccccc4)cc3)N3CCCC[C@@]3(C(=O)OC)[C@H]2C1=O,"inconclusive: 28.2 µM [activator, single point]",
COc1ccc(C2NC(=O)C(C#N)=C(S)N2c2ccc(C)cc2)cc1OC (stereo not drawn),,inactive: -2.84%
CCC(=O)c1ccc(N2CCN(C(=O)Cc3ccccc3)CC2)c(F)c1,,inactive: 12%
O=S(=O)(NC1=NCCCCC1)c1ccc2sc(NS(=O)(=O)c3ccc4ccccc4c3)nc2c1,"inconclusive: 50.1 µM [activator, single point]",
COCCc1nn2c(=O)cc(COC(=O)COc3ccccc3C)nc2s1,,inactive: 28.2%
C#CCn1cc(/C=N/NC(=O)COc2cccc3cccnc23)c2ccccc21,"inconclusive: 50.1 µM [activator, single point]",
Cc1cc(NC(=S)N(Cc2ccc(Br)cc2)Cc2ccc(C(=O)O)cc2)ccc1Cl,"inconclusive: 28.2 µM [activator, single point]",

Structure (SMILES),Potency,growth rescue (activation)
CCCCC1(C)NC(=O)c2c(C)sc(C(=O)OCC)c2N1 (stereo not drawn),,inactive: -1.1%
Cc1c(NC(=S)N/N=C/c2cc([N+](=O)[O-])ccc2O)c(=O)n(-c2ccccc2)n1C,"inconclusive: 44.7 µM [activator, single point]",
Cn1nnnc1Sc1ncnc2scc(-c3ccc(C#N)cc3)c12,,inactive: -12.2%
COc1ccc(-c2noc(CN(C(=O)c3ccoc3C)C(C)C)n2)cc1,"inconclusive: 22.4 µM [activator, partial curve]",
CC(C)c1ccc(C(=O)Nc2cccc3cccnc23)cc1,,inactive: 5.29%
CC(NC(=O)c1cc2ccc(C(F)(F)F)cc2nc1N)c1cccc2ccccc12 (stereo not drawn),"inconclusive: 50.1 µM [activator, single point]",
O=C(NC1CCCCN(Cc2cccc(C(F)(F)F)c2)C1=O)c1cccc(F)c1 (stereo not drawn),,inactive: -2.17%
COC(=O)CN1C(=O)[C@H]2[C@@H](/C=C/c3ccccc3)N3C(=O)CN(Cc4ccc(-c5ccccc5)cc4)C(=O)[C@@]3(C)[C@H]2C1=O,"inconclusive: 35.5 µM [activator, single point]",
CCc1ccccc1N1CC(c2nc3ccccc3n2Cc2cccc(C)c2)CC1=O (stereo not drawn),"inconclusive: 14.1 µM [activator, partial curve]",
O=C(NC1CCCCN(Cc2ccc(Cl)cc2)C1=O)c1cccs1 (stereo not drawn),,inactive: 12.5%
CCCNC(=O)C1(S(=O)(=O)c2ccccc2)CC=CC1,,inactive: -7.68%
Cc1ccc(C)c(N2CCN(C(=O)c3ccc4c(Cl)c5c(nc4c3)CCCC5)CC2)c1,"inconclusive: 50.1 µM [activator, single point]",
COc1cccc(CNC(=O)c2c(O)nc3ccccn3c2=O)c1,,inactive: -21.6%
O=C1Nc2ccccc2N(C(=O)c2ccc(-c3ccccc3)cc2)C1c1nc2ccccc2[nH]1 (stereo not drawn),"inconclusive: 50.1 µM [activator, single point]",
COc1ccc(-c2cccc([C@H]3[C@@H]4C=CCC[C@@]4(C)C(=O)N3Cc3ccccc3)c2)cc1,"inconclusive: 17.8 µM [activator, partial curve, poor fit]",
Cc1cnc(C)c(Nc2nc(C(N)Cc3ccc(C(F)(F)F)cc3)cs2)n1 (stereo not drawn),"inconclusive: 25.1 µM [activator, partial curve]",
O=C(COC(=O)C1CCN(c2ccc(C(F)(F)F)cn2)CC1)NCCc1ccccc1,"inconclusive: 28.2 µM [activator, partial curve, poor fit]",
COc1ccc(N2CCN(c3nc4c(c(=O)n(C)c(=O)n4C)n3Cc3ccccc3)CC2)cc1,"inconclusive: 50.1 µM [activator, single point]",
CCc1ccc(CNC(=O)c2nn(C)c3c2CS(=O)(=O)c2ccccc2-3)cc1,"inconclusive: 15.8 µM [activator, partial curve, poor fit]",
CCc1cn([C@H]2C[C@H](O)[C@@H](CO)O2)c(=O)[nH]c1=O,,inactive: -25.4%
O=c1c2cnn(-c3ccccc3)c2nc(-c2ccco2)n1-c1ccccc1,"inconclusive: 15.8 µM [activator, partial curve]",

# Reference: PubChem BioAssay AID1347120 (National Center for Advancing Translational Sciences (NCATS), 2019)
